PubChem BioAssay AID588855 (National Center for Advancing Translational Sciences (NCATS), 2011)
Among all 410,000 compounds or so, about 5,000 (1.2%) were called active. The shares of active, inactive and inconclusive entries below differ from those in the screen. The call rests on the fitted dose curve; in most records, active means well fitted inhibition curve with a large enough effect; inconclusive means small, poorly fitted or top-dose-only effect; inactive means no such curve, though single readings can be large or run the other way. A potency beside an inconclusive call is a rough fit, not a confirmed value.
On the % scale 0 is the no-effect control and ±100 the full control effect; potency means the concentration at half of the fitted maximal effect; tags describe the fitted curve by direction and shape.

Experiment: qHTS for Inhibitors of TGF-b; further: nearly all actives have a fitted effect of over 65% in size
Settings: HepG2 CAGA-GFP TGF-b/SMAD3 reporter, GFP fluorescence, 18 h, TGF-beta stimulated, 500 pg/mL final; series mostly up to 46.1 µM; activity, negative = inhibition: at the top concentration
Summary of the method: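 Inhibition was scored as loss of TGF-beta-induced (500 pg/mL final, 18 hours, 37 degrees C) GFP in HEPG2 cells carrying a CAGA-GFP reporter, in DMEM with 1% FBS. Well GFP was summed per cell; Activity was normalised to unstimulated and stimulated DMSO wells, then concentration-response fitting.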
In the case of `COc1ccc(-n2ncc(C(C)NS(=O)(=O)c3cc(F)ccc3C)c2C)cc1` (stereo unspecified), the “activity, negative = inhibition” value is reported as inactive: 0%. For `CCc1nc2ccc(C(=O)NCCCN3CCN(c4ccc(F)cc4)CC3)cc2nc1CC`, the “activity, negative = inhibition” value was inactive: -12.4%. With `Cc1cccc(N2C(=O)CC(Sc3ccccc3C(=O)O)C2=O)c1` (stereo unspecified) the Potency was inconclusive: 22.4 µM [inhibitor, single point]. With `O=[N+]([O-])c1cc(C(F)(F)F)ccc1NCCc1c[nH]c2ccc(O)cc12` the Potency was inconclusive: 35.5 µM [inhibitor, single point]. With `CCN(CC)c1ccc(CNc2nc3ccccc3n2CCN2CCOCC2)cc1` the Potency was inconclusive: 11.2 µM [inhibitor, single point]. For `C(=N\Nc1nc2ccccc2[nH]1)/c1ccc2c(c1)OCO2`, the Potency was inconclusive: 10 µM [inhibitor, partial curve, poor fit]. In the case of `Cc1ccc(-c2ccnc3nc(Sc4ncc(C(F)(F)F)cc4Cl)nn23)cc1`, the Potency is reported as inconclusive: 20 µM [inhibitor, single point]. For `O=C(C1CCN(S(=O)(=O)c2cccnc2)CC1)N1CCN(c2ccc(Cl)cc2)CC1`, the Potency was inconclusive: 3.98 µM [inhibitor, partial curve, poor fit]. For `COc1ccc(C)cc1NC(=O)N1CCC(CN2CCC(C)CC2)CC1`, the “activity, negative = inhibition” value was inactive: 2.76%. For `CCn1cnc2c1c(=O)n(Cc1nnc3n1-c1ccccc1SC3)c(=O)n2Cc1ccccc1`, the Potency was inconclusive: 20 µM [inhibitor, single point]. For `COc1cc(C(=O)Nc2nnc(C)s2)cc(OC)c1OC`, the Potency was inconclusive: 35.5 µM [inhibitor, single point]. In the case of `CCCCC[C@H]1CN(CCc2ccccc2)C(=O)[C@@H]1CC(=O)NCc1ccc(OC)cc1`, the Potency is reported as active: 10 µM. With `CN(C)CCCN(C(=O)c1ccc(S(=O)(=O)N(C)Cc2ccccc2)cc1)c1nc2cc3c(cc2s1)OCO3` the Potency was inconclusive: 25.1 µM [inhibitor, single point]. For `COc1ccc(C2=CC(=O)C[C@H](c3ccc4c(c3)OCO4)C2)cc1`, the Potency was inconclusive: 35.5 µM [inhibitor, single point]. For `COc1ccc(NC(=O)C2CCCN(C(=O)c3ccc(Cl)cc3)C2)cc1Cl` (stereo unspecified), the Potency was inconclusive: 35.5 µM [inhibitor, single point]. In the case of `COc1ccccc1-c1ccc2c(c1)C(C)(Cc1ccccc1C#N)C(=O)N2` (stereo unspecified), the Potency is reported as inconclusive: 25.1 µM [inhibitor, single point]. With `CC(=O)Nc1cccc(-c2ccnc3c2CC(C(=O)Nc2cccc(OC(F)(F)F)c2)O3)c1` (stereo unspecified) the Potency was inconclusive: 35.5 µM [inhibitor, single point]. With `CC1CCN(C(=O)COC(=O)/C=C/c2ccc([N+](=O)[O-])cc2)CC1` the Potency was inconclusive: 14.1 µM [inhibitor, partial curve, poor fit]. With `Cc1cccc(OCC(=O)NC2CCCc3ccccc32)c1C` (stereo unspecified) the Potency was inconclusive: 15.8 µM [inhibitor, partial curve, poor fit]. With `Nc1n[nH]c(N)c1N=Nc1cccc(F)c1` the “activity, negative = inhibition” value was inactive: -18.5%. With `CCc1cccc(C)c1NC(=O)CN(C)S(=O)(=O)c1cccc2nsnc12` the Potency was inconclusive: 35.5 µM [inhibitor, single point]. For `Cc1c(C(=O)N(Cc2ccc(N(C)C)cc2)CC2CCCO2)oc2ccc(Br)cc12` (stereo unspecified), the Potency was inconclusive: 35.5 µM [inhibitor, single point]. For `C#CCSc1nc2ccccc2c(=O)n1CC=C`, the “activity, negative = inhibition” value was inactive: 5.32%. In the case of `COc1cc2c(C(=O)N(C)c3ccc(F)cc3)cn(C)c(=O)c2cc1OC`, the “activity, negative = inhibition” value is reported as inactive: -2.85%. In the case of `Cn1nc(C(F)(F)F)c(/C=N/OC(=O)c2ccccc2)c1Sc1ccc(Cl)cc1`, the Potency is reported as inconclusive: 5.62 µM [inhibitor, single point]. In the case of `CCOc1ccc2oc(=O)cc(CN3CCN(c4ccc(Cl)cc4)CC3)c2c1`, the Potency is reported as inconclusive: 14.1 µM [inhibitor, single point]. In the case of `CCCCc1c(O)nc(SCC(=O)c2ccccc2)[nH]c1=O`, the Potency is reported as inconclusive: 35.5 µM [inhibitor, single point]. With `CC(=O)Nc1ccc(CNc2ncnc3ccc(-c4c(C)noc4C)cc23)cc1` the Potency was inconclusive: 3.55 µM [inhibitor, single point]. In the case of `O=[N+]([O-])c1ccc(Sc2ccc(F)cc2)nc1`, the Potency is reported as inconclusive: 35.5 µM [inhibitor, single point]. For `CCN1CCN(c2cc(C)c3cc(NC(=O)c4ccccc4F)ccc3n2)CC1`, the “activity, negative = inhibition” value was inactive: 35.2%. For `Cc1ccc(NC(=O)COc2ccccc2C(N)=O)cc1S(=O)(=O)N1CCCCCC1`, the Potency was inconclusive: 11.2 µM [inhibitor, partial curve, poor fit]. With `CCOc1cccc2cc(-c3csc(NC(=O)CCC(=O)NCCN4CCCCC4C)n3)c(=O)oc12` (stereo unspecified) the “activity, negative = inhibition” value was inactive: -27.7%. For `C=CC[C@H](CC(=O)N[C@H](CO)Cc1ccccc1)C(=O)N[C@@H](COC(=O)[C@@H](CC=C)CC(=O)OC(C)(C)C)Cc1c[nH]c2ccccc12`, the Potency was active: 11.2 µM. In the case of `O=C(NC(NCc1cccnc1)C(Cl)(Cl)Cl)c1cccc2ccccc12` (stereo unspecified), the Potency is reported as inconclusive: 3.98 µM [inhibitor, full curve, poor fit]. For `COc1ccccc1N1CCN(c2cc(C)nc3nc(-c4ccc(Cl)cc4)nn23)CC1`, the Potency was inconclusive: 1.12 µM [inhibitor, partial curve, poor fit]. With `Cc1cccc(N2CCN(C(=O)c3ccc4c(c3)c(C)c(C)n4C)CC2C)c1` (stereo unspecified) the Potency was inconclusive: 11.2 µM [inhibitor, partial curve, poor fit]. In the case of `Cc1ccc(Nc2nc(N)nc(-c3oc4ccccc4c3C)n2)cc1`, the Potency is reported as inconclusive: 7.08 µM [inhibitor, partial curve]. In the case of `COc1cccc(S(=O)(=O)Nc2ccc(C(=O)N3CCOCC3)cc2)c1`, the Potency is reported as inconclusive: 35.5 µM [inhibitor, single point]. For `O=S1(=O)CCC(NC(=S)NC2CCS(=O)(=O)C2)C1` (stereo unspecified), the “activity, negative = inhibition” value was inactive: -2.98%. In the case of `O=[N+]([O-])c1ccc(/C=[N+](\[O-])[C@@H]2CCCC[C@@H]2/[N+]([O-])=C/c2ccc([N+](=O)[O-])o2)o1`, the Potency is reported as active: 7.08 µM. With `CCOc1ccccc1CNC(=O)C1CCCN(S(=O)(=O)c2ccc3c(ccn3C)c2)C1` (stereo unspecified) the Potency was inconclusive: 11.2 µM [inhibitor, partial curve].
